Laboratory results published in the RNAGym collection of RNA variant scans (doi:10.1073/pnas.2313332121).
Variants at the floor of the assay are shown more often than the library holds them.

B1: TPR 5TU (parent)
chain: GGAUCUUCUCGAUCUAACAAAAAAGACAAAUCUGCCACAAAGCUUGAGAGCAUCUUCGGAUGCAGAGGCGGCAGCCUUCGGUGGCGCGAUAGCGCCAACGUUCUCAACUAUGACACGCAAAACGCGUGCUCCGUUGAAUGGAGUUUAUCAUG

Variants of: B1
Experiment: polymerase ribozyme fitness, log enrichment relative to wild type (log ratio); higher = more active; in vitro selection for triplet polymerase activity
Outline: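 Each subunit of a heterodimeric triplet polymerase ribozyme was represented by a PCR-built, transcribed mutant library that underwent triplicate single-round in vitro selection with frozen incubation at −7 °C. Extended constructs were recovered by gel excision, streptavidin-bead capture and RT-PCR, and Illumina sequencing of input and output libraries kept genotypes with ≥10 input reads and ≥1 read per output. Fitness is the logarithm of genotype enrichment relative to wild-type enrichment, from inverse-variance-weighted replicate averages, with a logarithm base of 2.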

Variant	polymerase ribozyme fitness (log ratio)
U33G U56A C69U C87G U101C	≤ -4.2
U33G U61A C75A G94C C103G A137C U146C	≤ -4.2
U33G U61A C76A	≤ -4.2
U33G U77C A107U	≤ -4.2
G34A	-0.292
G34A A39C C93A U101A G133U	≤ -4.2
G34A A39U C96A U135C G140C	≤ -4.2
G34A A39U G88A A150G	≤ -4.2
G34A A41C U55A C103G C105U G136A	≤ -4.2
G34A A41G A120U	-1.2
G34A A47U G50A C63U	-2.2
G34A A52C A66U G74A A98U	≤ -4.2
G34A A52G G59C G126A	≤ -4.2
G34A C36A A137G	≤ -4.2
G34A C36G C69G C76A C95G G112A	≤ -4.2
G34A C36G G58C C85G G136U A150C G152C	≤ -4.2
G34A C38A A73U G86A C87U C116U	≤ -4.2
G34A C54A U56A C96G G100A	≤ -4.2
G34A C57G A66U A115U U134C A142U U148G	-3.95
G34A C57G G117A U144A	-3.39
G34A C63U G70C U77G A91C A113U G133C G143U	≤ -4.2

Variant	polymerase ribozyme fitness (log ratio)
G34A C72U C96A C103U A150C	≤ -4.2
G34A C75G C129A G133C	≤ -4.2
G34A C76G G86A C95U C114U G140A U146C	≤ -4.2
G34A C76U C93A C116G A150C	≤ -4.2
G34A C79A C87A U139A	≤ -4.2
G34A C79U A107C C108G C116G	≤ -4.2
G34A C85A A89U C118A	≤ -4.2
G34A C85G U104A G143U	≤ -4.2
G34A C87A C116G U139A	≤ -4.2
G34A C87G C93U C103G C118U U151A	≤ -4.2
G34A C99G G100A C129A A147U	≤ -4.2
G34A G42C G68A C93G U144A U151A	≤ -4.2
G34A G42U C95G C116U	≤ -4.2
G34A G46U U55A C57U U102G U135A	≤ -4.2
G34A G48C G59A U102G C114A G143U A147G	≤ -4.2
G34A G59A C93G A106C	≤ -4.2
G34A G65A C96U G136C	≤ -4.2
G34A G65C U82G G83A A89G C105U A107U	≤ -4.2
G34A G67C U82A A115G C118G	≤ -4.2
G34A G67U U77C A89C U101G C116G U151C	≤ -4.2
G34A G81C C105G A107G G124A	≤ -4.2

Variant	polymerase ribozyme fitness (log ratio)
G34A G83A C85A G112U A138U	≤ -4.2
G34A G84A C95G	-0.00509
G34A G84A U134G	-2.82
G34A G92A C95U C123G A138U	≤ -4.2
G34A G92U C96G A147C U148G G152U	≤ -4.2
G34A U45A U101A G141C	≤ -4.2
G34A U55A	-2.46
G34A U55A C69A C76U G80C C87G A89C A107C C116U	≤ -4.2
G34A U55A G71C C95U U151A	≤ -4.2
G34A U55G C87G G88U G141C	≤ -4.2
G34A U55G G81A G126A A138G	≤ -4.2
G34A U78G G86U A106G A115G A120G	≤ -4.2
G34A U102G	≤ -4.2
G34A U145A	-0.571
G34C	-1.49
G34C A39G A49C A97U	≤ -4.2
G34C A47C G58C G70A G71A A89U C93G	≤ -4.2
G34C A49C A52G U61G C87U C95A	-4.12
G34C A60G C96G C105G A137G	≤ -4.2
G34C C36A A91C C96U C123G G140A	-4.15
G34C C54U A91U	≤ -4.2

Variant	polymerase ribozyme fitness (log ratio)
G34C C54U G86U A98C G117U	≤ -4.2
G34C C75A G94A C108G U130A	≤ -4.2
G34C C76A C85U C118U G140A	≤ -4.2
G34C C85A G126U A138G	≤ -4.2
G34C C87G U90G G92A U148A	≤ -4.2
G34C C87U	-3.33
G34C C93A A121U G124U C149G	≤ -4.2
G34C C93U A121G U144G U146A	≤ -4.2
G34C C93U U139A G141C	≤ -4.2
G34C G42C A47G A64C C95G U130G U146C	≤ -4.2
G34C G50C G84C U102A	≤ -4.2
G34C G58A G68C G84A U90G A120G C125G	≤ -4.2
G34C G58C C114A	≤ -4.2
G34C G84A C96A A121U	≤ -4.2
G34C G88U U144A	≤ -4.2
G34C U45A G50C A52C U53A C76A G81A G92A C105G	≤ -4.2
G34U	-1.11
G34U A39C A60C U61A G70U C87A U101G C132U	≤ -4.2
G34U A39C G59A A89G C114U A150U	≤ -4.2
G34U A39U C69G C76A G86U C93A	≤ -4.2
G34U A39U U53A A64U C116U U146G	≤ -4.2
